# Measured values as given in a collection of fitness landscapes (doi:10.1126/science.1257360).
# Some of the results follow.
# B1: PhoQ; a variant is named by its letters at X, in order, P23837 (parent)
# chain: MKKLLRLFFPLSLRVRFLLATAAVVLVLSLAYGMVALIGYSVSFDKTTFRLLRGESNLFYTLAKWENNKLHVELPENIDKQSPTMTLIYDENGQLLWAQRDVPWLMKMIQPDWLKSNGFHEIEADVNDTSLLLSGDHSIQQQLQEVREDDDDAEMTHSVAVNVYPATSRMPKLTIVVVDTIPVELKSSYMVWSWFIYVLSANLLLVIPLLWVAAWWSLRPIEALAKEVRELEEHNRELLNPATTRELTSLVRNLNRLLKSERERYDKYRTTLTDLTHSLKTPLXXLQXXLRSLRSEKMSVSDAEPVMLEQISRISQQIGYYLHRASMRGGTLLSRELHPVAPLLDNLTSALNKVYQRKGVNISLDISPEISFVGEQNDFVEVMGNVLDNACKYCLEFVEISARQTDEHLYIVVEDDGPGIPLSKREVIFDRGQRVDTLRPGQGVGLAVAREITEQYEGKIVAGESMLGGARMEVIFGRQHSAPKDE
# Variants of: B1
# Assay: enrichment ratio after two sorts for PhoP signalling (ratio (wild type AVST 3.29)); higher = more functional
# Details: with PhoP (E. coli)
row,Variant,enrichment ratio
1,TEGL,13.2
2,RCHQ,≤ 0.25
3,TQMY,12.5
4,TDIH,2
5,FAWH,≤ 0.25
6,IYNK,≤ 0.25
7,GKDD,≤ 0.25
8,RDPI,≤ 0.25
9,WNCD,≤ 0.25
10,LMSN,≤ 0.25
11,NHGA,≤ 0.25
12,DPTV,≤ 0.25
13,PGDA,≤ 0.25
14,IEFM,≤ 0.25
15,HTGY,≤ 0.25
16,EYMD,≤ 0.25
17,MPAW,≤ 0.25
18,VQWM,≤ 0.25
19,NMSA,≤ 0.25
20,QLLG,0.299
21,QSLC,≤ 0.25
22,ENYM,≤ 0.25
23,YFYS,≤ 0.25
24,KPLS,≤ 0.25
25,PFYL,≤ 0.25
26,ALVD,≤ 0.25

row,Variant,enrichment ratio
1,FMKI,≤ 0.25
2,GSTD,≤ 0.25
3,KDFV,≤ 0.25
4,HPAF,≤ 0.25
5,GGQS,≤ 0.25
6,AKPM,≤ 0.25
7,HCSM,≤ 0.25
8,LTEA,≤ 0.25
9,NDMI,5.32
10,ASPL,1.12
11,GTTP,≤ 0.25
12,DIAN,2.1
13,PYID,≤ 0.25
14,VHMP,≤ 0.25
15,VCCG,1.29
16,TFPG,≤ 0.25
17,AMVG,≤ 0.25
18,RNVR,≤ 0.25
19,WYTT,≤ 0.25
20,SMGW,≤ 0.25
21,KMVC,≤ 0.25
22,LTTG,≤ 0.25
23,SFSK,≤ 0.25
24,QRLC,≤ 0.25
25,TRLW,≤ 0.25
26,RCRP,≤ 0.25

row,Variant,enrichment ratio
1,ELTD,≤ 0.25
2,WEIV,≤ 0.25
3,TASI,12.5
4,YKHI,≤ 0.25
5,EMMQ,≤ 0.25
6,MRTA,≤ 0.25
7,SIER,≤ 0.25
8,KEPN,≤ 0.25
9,IPVM,≤ 0.25
10,LDDM,≤ 0.25
11,DRGT,≤ 0.25
12,YSFK,≤ 0.25
13,DKST,≤ 0.25
14,ASPV,0.706
15,MRLW,≤ 0.25
16,DMMD,≤ 0.25
17,KHCS,≤ 0.25
18,FMCE,≤ 0.25
19,TTMH,5.31
20,AINH,≤ 0.25
21,PFNK,≤ 0.25
22,FPIR,≤ 0.25
23,AGHE,≤ 0.25
24,WKNV,≤ 0.25
25,MRWN,≤ 0.25
26,PNQP,≤ 0.25

row,Variant,enrichment ratio
1,WFTT,≤ 0.25
2,GYTM,≤ 0.25
3,KNVS,≤ 0.25
4,RYFV,≤ 0.25
5,WHKQ,≤ 0.25
6,QKGL,≤ 0.25
7,DSGL,≤ 0.25
8,LEVA,≤ 0.25
9,QGDT,≤ 0.25
10,YNMQ,≤ 0.25
11,PETV,≤ 0.25
12,RYKQ,≤ 0.25
13,KPIT,≤ 0.25
14,SNCP,≤ 0.25
15,IWFL,≤ 0.25
16,PCGF,≤ 0.25
17,SFWR,≤ 0.25
18,RYGS,≤ 0.25
19,NKFI,≤ 0.25
20,QYKA,≤ 0.25
21,DSNM,≤ 0.25
22,YDHR,≤ 0.25
23,DQDQ,≤ 0.25
24,GEDS,≤ 0.25
25,KHEY,≤ 0.25
26,IEGD,≤ 0.25

row,Variant,enrichment ratio
1,HNPA,≤ 0.25
2,FADI,≤ 0.25
3,HERP,≤ 0.25
4,SYGE,≤ 0.25
5,IMFG,≤ 0.25
6,SWMW,≤ 0.25
7,GDSG,≤ 0.25
8,DVPV,≤ 0.25
9,DFCT,≤ 0.25
10,EAVF,≤ 0.25
11,PWVD,≤ 0.25
12,YPFI,≤ 0.25
13,IIVT,≤ 0.25
14,TSNE,8.75
15,SWMG,≤ 0.25
16,AHMP,≤ 0.25
17,KMKI,≤ 0.25
18,YFWR,≤ 0.25
19,SFTE,≤ 0.25
20,NDYV,≤ 0.25
21,TMFI,≤ 0.25
22,PLPK,≤ 0.25
23,YFPD,≤ 0.25
24,MICQ,≤ 0.25
25,TMEK,≤ 0.25
26,KSTH,≤ 0.25

row,Variant,enrichment ratio
1,PDPA,≤ 0.25
2,TMIH,≤ 0.25
3,AVMY,1.69
4,FLKT,≤ 0.25
5,PIEF,≤ 0.25
6,NNNY,≤ 0.25
7,QYFV,≤ 0.25
8,KEGI,≤ 0.25
9,ELCP,≤ 0.25
10,ARTD,≤ 0.25
11,PKLC,≤ 0.25
12,RPYT,≤ 0.25
13,VKDY,≤ 0.25
14,PRCL,≤ 0.25
15,QQCL,≤ 0.25
16,VLCT,≤ 0.25
17,PVMP,≤ 0.25
18,TMCD,3.1
19,WVQG,≤ 0.25
20,IEGK,≤ 0.25
21,SMVR,2.05
22,YAEE,≤ 0.25
23,TRQF,≤ 0.25
